Measurements taken from the RNAGym collection of RNA variant scans (doi:10.7554/elife.90254).
The source gives no read counts; variants with many changes may rest on few reads.

B1: LINE1-full (parent)
chain: UACGUAGGUGGUUUUCCCCUGAUAGUGCUAAGGGGGCCUGGAAGUUUGGACUGGGCAGAGCUCAACACAGCGUGGCAAAGUGGCUGUGGCUAGACUGCCUCUCUGGAUUCCUCGUCACUCAGCAGGGCAUCUCUGAGAGAAAUGCC

Variants of: B1
Assay: self-cleavage, relative activity (ratio to wild type); higher = more cleavage; in vitro, sequencing; the parent is a self-cleaving ribozyme

Variant	self-cleavage
G53U A129U A138G A142G	1.19
U132A A140G U143C	1.37
A22G A31U U62C U85C G122A	0
G8A U15A G33A U45C U46C U119C	1.11
A50G U73A A141G	0.97
U9C U96G G125C	0
C3U U87C U132C	0.13
U5A A59G A64G A67U U119C	0
U1C A117U A129G	1.3
U12G U39C U115A	0.78
U73A A78G A79U	0.24
G7A U13C A50G A57U G88C U115C U119A	0
U5A U20A U45A	0.66
U9G G35A U100C	0.99
U62A A78G U115C U143A	0.06
A69U G75A C128U	0.09
U15C C38A U62A	0.03
A22G C51U A117G U130C	1.75
A59G A65U U85C	0.2
A31G G35U U100G A142G	1.53
G10A A31U U52A G82A	1.43

Variant	self-cleavage
A22C A107G A140G	2.69
U39C U46C U52A U115C A141G	1.2
U1C U87C U91A	0.22
U14A G58C U104C A136G	0.03
U115C G126U A129G	2.37
G83A U96A U119A	0.04
A77G A92G A117G	0
G25A U39A U62A U85A	0.01
U20C A92G C131G	0
U1C A31U G53U U62A U100C A121G A141G	0.08
U104A A129G A141G	1.7
G86U A124U A138G	0.04
U20C U96A A124G A142G U143A	0.16
U9C U12G G86U U100C	0.41
U1C U12C A121G	0.94
G83A U119C C131U	1.07
U39G U46C U81A	2.39
U14C A57U A92G U119C G135A A138G	0.33
U52C A67G A129U	0.32
U1C A6G A107G U115A U119C A138G	0
U52C U62A A78G U108C	0

Variant	self-cleavage
A6G A31U C84U	0.31
G58A U62C U119C	0.05
U9A U62C U81C	0.14
U62C U96C U112C U119A A141G	0.1
G54A U115C A138G	1.48
A22G U62A A121G	0.1
U14C A92G G93A U112C A124U	0
U47C U73A U96A	0.13
A6G U14C G49A	0.56
U12C G86U A141G	0.32
U20A G40A A136G	1.52
U15A A31G A64G U96C A121U	0
G93A U102C A138G	0.02
U12G G21U U39A A57G U81A U85A A92U A107G	0
A30G A65G C110A U119G U132A	0
A6G C38U U52A C63U G83C C146U	0.34
A57G A77U U100C	1.73
U15C A30G U104G A107G G144A	1.31
U13C A59G U104A A141G	0.22
U47C A64U U108C	0.38
U9A A42G U109G	0.6

Variant	self-cleavage
U9C G21A U81C U91C C95U	0.16
U14C C66A A67G	0.05
A2U A77U A78G A107G	0
U5C A42G U73C C131U	1.38
U14A U52C U112C	1.23
A57G A78U C90U	0.03
G88U U91C U100C	0.17
U85C U102C A121G	0
U119A U132C A140G	2.15
U96A G125U U132C A140U	0.04
G32A U45C A69U	0.05
U112C U132C A140G	0.92
A24G U52A G72A	1.23
A79G G83A A94U	0.22
A78G U100C U143A	0
U14C U46A U52A A129G	2.96
U13A U15C A30G G33U A78G U119C	0.97
U62C U85A U91A U115A A141U	0
U9C A78C G125A U130C A141G	1.82
U20C A43G U91C U143A	0.63
U104C U112A U134C A140G	1.41
